Measured values reported in PMC7705112, “A Novel, Broad-Acting Peptide Inhibitor of Double-Stranded DNA Virus Gene Expression and Replication” (Frontiers in Microbiology, 2020).
Peptide text beside a SMILES is read from it.

System: simian virus 40 (SV40) strain VR-239

Compound	effect on large T antigen mRNA levels (Figure 9A, TAT (48–60))	inhibition of large T antigen transcript levels (at the highest concentration tested (20 μM), vs untreated cells)
GRKKRRQRRRPPQ [TAT]	no inhibitory effect	–
CC(C)C[C@H](NC(=O)[C@H](CS)NC(=O)[C@H](CCC(N)=O)NC(=O)[C@@H]1CCCN1C(=O)[C@@H]1CCCN1C(=O)[C@H](CCCNC(=N)N)NC(=O)[C@H](CCCNC(=N)N)NC(=O)[C@H](CCCNC(=N)N)NC(=O)[C@H](CCC(N)=O)NC(=O)[C@H](CCCNC(=N)N)NC(=O)[C@H](CCCNC(=N)N)NC(=O)[C@H](CCCCN)NC(=O)[C@H](CCCCN)NC(=O)[C@H](CCCNC(=N)N)NC(=O)CN)C(=O)N[C@@H](C)C(=O)N[C@@H](Cc1ccccc1)C(=O)N[C@@H](Cc1ccc(O)cc1)C(=O)N[C@@H](C)C(=O)N[C@@H](CS)C(=O)N[C@@H](Cc1ccccc1)C(=O)N[C@@H](CS)C(=O)O [TAT-I24] (H-GRKKRRQRRRPPQCLAFYACFC-OH)	–	approximately 98%
